Assay results reported in PubChem BioAssay AID1159614 (National Center for Advancing Translational Sciences (NCATS), 2016).
About 65 (0.1%) of roughly 45,000 compounds were called active. Calls come from the whole dose curve; as a rule, active = well fitted activation curve with a large enough effect; inconclusive = small, poorly fitted or top-dose-only effect; inactive = no such curve, though single readings can be large or run the other way. The list shows a part of the results.

Biological target: Galactocerebrosidase (Homo sapiens) (UniProt P54803)
Assay: A Novel Cell-Based Assay to Identify Small Molecules for B -Galactocerebrosidase; note: 0% is about no effect; nearly all actives have a fitted effect of over 65% in size
Conditions: 145M-Twi-hGALC-G270D cells (Twitcher mouse brain line with human GALC G270D), HMU-beta-Gal fluorescence, 48 h; series mostly up to 57.5 µM; activation: at the top concentration
Procedure, shortened: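 Brain-derived Twitcher mouse 145M-Twi cells stably expressing human GALC-G270D or wild-type GALC, treated live, then residual GALC activity read by fluorescence of HMU-b-Gal substrate (0.1 mM final) in citrate-phosphate buffer pH 5.2 with sodium taurocholate. Signal increase indicates enhancement.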

Chain of UniProt P54803 (P54803 whole entry, looked up): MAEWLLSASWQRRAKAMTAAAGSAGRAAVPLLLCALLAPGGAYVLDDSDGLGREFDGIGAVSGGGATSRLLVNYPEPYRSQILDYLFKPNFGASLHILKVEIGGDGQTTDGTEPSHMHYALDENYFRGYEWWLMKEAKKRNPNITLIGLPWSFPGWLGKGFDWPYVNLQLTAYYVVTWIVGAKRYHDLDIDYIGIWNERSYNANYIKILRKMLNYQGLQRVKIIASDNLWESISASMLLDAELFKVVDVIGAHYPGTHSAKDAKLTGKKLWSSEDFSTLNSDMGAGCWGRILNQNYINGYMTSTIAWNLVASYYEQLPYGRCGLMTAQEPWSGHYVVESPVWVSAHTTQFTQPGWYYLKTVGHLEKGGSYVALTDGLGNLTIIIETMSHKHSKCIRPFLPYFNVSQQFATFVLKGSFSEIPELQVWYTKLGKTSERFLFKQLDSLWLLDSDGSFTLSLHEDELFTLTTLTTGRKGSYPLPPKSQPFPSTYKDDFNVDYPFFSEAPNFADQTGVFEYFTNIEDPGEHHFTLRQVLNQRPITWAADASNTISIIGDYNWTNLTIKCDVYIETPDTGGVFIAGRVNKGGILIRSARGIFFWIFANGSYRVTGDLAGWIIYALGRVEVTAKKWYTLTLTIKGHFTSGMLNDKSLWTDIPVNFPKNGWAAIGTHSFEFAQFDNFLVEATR

activation, inactive:
CC(C)CCNC(=O)CSCc1cnn(-c2ccccc2)c1-n1cccc1 -9.48%
CC(C)c1cnc2c(c1SCc1cccc(C(F)(F)F)c1)c(=O)n(C)c(=O)n2C 0.778%
Cc1ccc(-n2c(=O)c3ccc(C(=O)NCc4ccco4)cc3n(Cc3cccc(Cl)c3)c2=O)cc1 -10.4%
COc1ccc(Br)cc1CNC(=O)CN1CCSc2ccccc21 -38.3%
Cc1cccn2c(=O)cc(COc3cccc(NC(=O)c4ccccc4F)c3)nc12 -9.96%
COc1ccc(NC(=O)Cn2c(=O)n(Cc3nc(-c4ccccc4)no3)c(=O)c3cc4c(cc32)OCO4)cc1Cl -12.2%
O=C(Nc1ccc(Cl)c(Cl)c1)N1CCC(c2ccccc2)C1 (stereo not given) 4.02%
COC(=O)c1ccccc1NC(=O)Cc1noc2ccc(C)cc12 -16.2%
Cc1cccc(NC(=O)Cn2cc(C(=O)c3ccco3)c3ccccc32)c1C -8.78%
CCc1ccccc1NC(=O)Cn1nnc(C(=O)Nc2ccc(C)c(F)c2)c1N -10.5%
Cc1nn(CC(=O)NCc2ccc(OC(C)C)cc2)c(=O)c2c(C)n(-c3ccc(Cl)cc3)nc12 -9.71%
COc1ccc(CN2C(=O)C(NC(=O)c3ccccc3C)(C(F)(F)F)N=C2c2ccccc2)cc1 (stereo not given) -10.6%
Cc1ccc2oc(-c3ccc(Cl)c(NC(=O)c4ccc(-c5ccccc5[N+](=O)[O-])o4)c3)nc2c1 -14.4%
COc1ccc2c(c1)-c1nc(NC(=O)c3ccc(Cl)cc3)sc1CC2 -31.2%
COc1ccc(CNc2ncnc3c2nnn3C)cc1 4.28%
COc1ccccc1CCNc1ncnc2c1nnn2C -1.12%
CSc1ccc(CCNC(=O)Cn2ncc3c(=O)oc4ccc(C)cc4c32)cc1 -11.3%
CCCCCOc1ccc(C2c3c(oc4ccccc4c3=O)C(=O)N2c2nc(C)c(C)s2)cc1OCC (stereo not given) -10.9%
O=C(CSc1nc2c([nH]c3ccccc32)c(=O)n1-c1ccccc1)N1CCCC1 4.11%
O=C(Nc1ccc(O)cc1)c1cccc(S(=O)(=O)N2CCOCC2)c1 -1.71%
O=C(O)c1cn(C2CC2)c2cc(Cl)c(F)cc2c1=O -4.23%
Cn1nc(C(=O)N2CCN(c3ccccc3)CC2)c2c1-c1ccccc1S(=O)(=O)C2 -12.2%
COc1ccc(C)cc1NC(=O)c1ccc2c(Cl)c3c(nc2c1)CCC3 -11.5%
COc1ccc(S(=O)(=O)c2c(SC)nn(Cc3ccccc3C)c2NC(C)=O)cc1 -19.9%
CCCC(=O)N1c2nc(C(C)C)nn2C2(CCCCC2)[C@@H]2CCCC[C@@H]21 -6.91%
CCCCn1c(=O)c2oc3ccccc3c2n(CC(=O)Nc2cccc(Cl)c2)c1=O -13.2%
CCCCc1nn2c(=O)cc(COC(=O)c3ccccc3NC(=O)c3ccccc3OC)nc2s1 -11.6%
COc1cccc(NS(=O)(=O)c2ccc3[nH]cc(C(=O)N(C)C4CCCCC4)c(=O)c3c2)c1 -3.32%
COc1ccc2oc(=O)cc(CN3CCN(c4ccccc4F)CC3)c2c1 -16.3%
COc1cccc(CNC(=O)c2ccc(NC(=O)N3CCCCc4ccccc43)cc2)c1 -0.238%
COc1cc2c(cc1OC)n(CC(=O)c1ccc(F)cc1)c(=O)n1nc(CCn3nc(C)cc3C)nc21 -7.82%
CCOC(=O)c1cccc(Nc2ccc3cc(S(=O)(=O)N4CCCCC4)ccc3n2)c1 -8.91%
O=c1c2oc3ccccc3c2n(Cc2ccccc2)c(=O)n1Cc1ccc2c(c1)OCO2 9.48%
Cc1ccc(OCC(=O)Nc2ccc3nn(-c4ccc(Cl)cc4)nc3c2)cc1 -21.1%
Cc1ccc(C)c(NC(=O)Cn2c(=O)n(CCC(=O)NCc3ccc4c(c3)OCO4)c(=O)c3ccccc32)c1 -11.1%
CCCN1CCCc2cc(CN(CCCN3CCOCC3)C(=O)Nc3ccc(CC)cc3)ccc21 10.6%
CCOC(=O)C1CCCN(C(=O)c2ccc3c(c2)N(Cc2ccccc2)C(=O)c2ccccc2S3=O)C1 (stereo not given) 5.24%
COc1cc(C2CC(=O)Nc3c2c(=O)[nH]c2ncnn32)ccc1O (stereo not given) -12.1%
Cc1ccc(-c2nc(SCC(=O)NCC3CCCO3)c(-c3ccc(C)cc3)[nH]2)cc1 (stereo not given) -18.5%
O=C(Nc1cccc(Cl)c1)c1csnn1 -15.8%
Cc1nnc(N2CCN(C(=O)Nc3cccc(C(F)(F)F)c3)CC2)c2nn(-c3ccccc3)c(C)c12 6.29%
NC(=O)c1cc(S(=O)(=O)NCC2CCC(C(=O)Nc3ccc(Cl)cc3)CC2)cs1 (stereo not given) -15.1%
O=C(OCc1cc(=O)n2c3c(sc2n1)CCCC3)c1cccc(NC(=O)c2ccccc2F)c1 -24.3%
COc1ccc(-c2nc3ccccc3n2Cc2ccc(Cl)cc2)cc1 -21.8%
Cc1ccc(C(=O)c2oc3ccccc3c2NC(=O)Cc2coc3c(C)c(C)ccc23)cc1 -19.8%
COc1cc(C)ccc1OCCSc1nnc(-c2ccc(C)cc2)o1 -5.13%
O=C(NCc1ccccc1Cl)c1ccc(NC(=O)N2CCCCc3ccccc32)cc1 -11.1%
Cc1ccc(S(=O)(=O)c2c(Nc3cccc(Cl)c3)sc(C(=O)c3ccc4c(c3)OCO4)c2N)cc1 -7.44%
CCOc1ccc(NC(=O)CSC2=Nc3ccccc3C3=NC(CC(=O)NCc4ccc5c(c4)OCO5)C(=O)N23)cc1 (stereo not given) 13%
CC1CCCCN1CC(=O)N1CCCc2c1c(=O)oc1ccc(OCc3ccccc3)cc21 (stereo not given) -24.6%
O=C(NCCS(=O)(=O)N1CCN(c2ccccc2)CC1)C1CC(=O)N(c2ccccc2)C1 (stereo not given) -24.3%
Cc1cc(Br)ccc1NC(=O)C1(S(=O)(=O)c2ccc(Cl)cc2)CC1 -11.8%
COc1ccccc1C(=O)Nc1ccc(-c2nc3ccccc3s2)c(C)c1 -24.3%
Cc1cccc(NC(=O)CN(C)S(=O)(=O)c2ccc3c(c2)c(=O)n(C)c(=O)n3C)c1 3.09%
COc1cccc(NC(=O)CSC2=Nc3ccccc3C3=NC(CCC(=O)NCc4ccco4)C(=O)N23)c1 (stereo not given) -14%
COc1ccc(-c2nc(CNS(=O)(=O)c3ccc(C)cc3)cs2)cc1 4%
CCOc1ccccc1C(=O)Nc1ccc(S(=O)(=O)N2CCCCC2c2cccnc2)cc1 (stereo not given) -15.3%
COc1ccccc1C(=O)Nc1nnc(S(=O)(=O)N2CCCCCC2)s1 -18%
Cc1ccc(-c2ccc(=O)n(CC(=O)Nc3ccc(F)c(Cl)c3)n2)cc1C -14.4%
CCOc1ccc(CCNc2nc3c(-c4ccc(C)cc4)nnn3c3ccccc23)cc1OCC 2.91%
